Results taken from paper PMC4336329 (PLoS ONE, 2015).
Among all 310,000 compounds or so, about 14,000 (4.5%) showed an effect of 50% or more. Effects have a minus sign here. The list shows a part of the results.

These compounds were tested against human ether-à-go-go-related gene (hERG) potassium channel (human, UniProt Q12809) (assay: primary screen, population patch clamp on CHO cells stably expressing hERG).
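Note: peak tail current of the secondary pulse compared with the same well before compound.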

human ether-à-go-go-related gene (hERG) potassium channel, sequence (Q12809 whole entry, looked up): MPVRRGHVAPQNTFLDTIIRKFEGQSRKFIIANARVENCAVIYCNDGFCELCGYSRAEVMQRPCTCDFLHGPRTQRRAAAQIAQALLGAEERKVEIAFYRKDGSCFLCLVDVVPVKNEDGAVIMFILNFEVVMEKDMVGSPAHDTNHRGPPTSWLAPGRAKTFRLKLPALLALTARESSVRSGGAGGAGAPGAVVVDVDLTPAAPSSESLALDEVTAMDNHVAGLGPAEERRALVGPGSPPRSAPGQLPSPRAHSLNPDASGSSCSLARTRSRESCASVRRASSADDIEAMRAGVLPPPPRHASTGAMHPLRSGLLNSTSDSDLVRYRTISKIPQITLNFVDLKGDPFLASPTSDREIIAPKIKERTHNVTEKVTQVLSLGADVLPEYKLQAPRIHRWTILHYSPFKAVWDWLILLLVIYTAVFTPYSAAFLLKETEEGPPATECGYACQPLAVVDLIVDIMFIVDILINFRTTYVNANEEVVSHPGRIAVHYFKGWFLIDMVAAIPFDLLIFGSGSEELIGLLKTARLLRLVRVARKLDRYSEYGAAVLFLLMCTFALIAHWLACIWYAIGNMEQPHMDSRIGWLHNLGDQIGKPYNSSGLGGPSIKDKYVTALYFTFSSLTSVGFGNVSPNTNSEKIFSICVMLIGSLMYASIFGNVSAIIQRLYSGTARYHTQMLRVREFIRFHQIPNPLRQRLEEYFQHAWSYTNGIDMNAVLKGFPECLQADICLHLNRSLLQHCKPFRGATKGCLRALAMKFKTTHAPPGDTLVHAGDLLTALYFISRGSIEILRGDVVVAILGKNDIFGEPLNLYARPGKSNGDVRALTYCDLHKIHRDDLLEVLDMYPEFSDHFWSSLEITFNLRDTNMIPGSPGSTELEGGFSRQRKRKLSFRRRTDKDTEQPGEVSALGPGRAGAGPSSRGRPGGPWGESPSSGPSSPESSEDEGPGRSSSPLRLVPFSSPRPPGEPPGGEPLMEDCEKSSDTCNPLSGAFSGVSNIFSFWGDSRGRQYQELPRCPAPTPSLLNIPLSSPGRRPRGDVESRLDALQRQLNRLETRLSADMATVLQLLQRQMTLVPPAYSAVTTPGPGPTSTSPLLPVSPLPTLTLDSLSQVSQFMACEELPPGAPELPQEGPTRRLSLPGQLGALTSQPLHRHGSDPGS

Going from `CCc1ccc2nc(Nc3nc(COC)cc(=O)[nH]3)nc(C)c2c1` to `COc1ccc(NC(=O)CSc2nnc(C)c(=O)n2N)cc1`, the “hERG current change (%, negative = inhibition) at 10uM” value rises from -73.3% to 3.36%.

Compared with `COn1c(=O)c(-c2cccs2)[n+]([O-])c2ccccc21`, `O=c1c2c(-c3ccc([N+](=O)[O-])cc3)ccnc2[nH]n1-c1ccccc1` is higher in “hERG current change (%, negative = inhibition) at 10uM” value: -5.83% for the first, 19.9% for the second.

Going from `Cc1ccc(NCCc2ccc(C)nc2)cc1` to `CCc1ccc(NC(=O)/C(C#N)=C\c2ccc(OC)c(C(=O)O)c2)cc1`, the “hERG current change (%, negative = inhibition) at 10uM” value rises from 7.27% to 19.9%.

Compared with `Cc1cc(C(=O)Nc2ccc(S(=O)(=O)Nc3onc(C)c3C)cc2)cs1`, `Cc1ccc(NC(=O)c2ccc3nc[nH]c3c2)nc1` is higher in “hERG current change (%, negative = inhibition) at 10uM” value: 12.6% for the first, 18.4% for the second.

Compared with `Cn1c(SCC(=O)c2ccc(F)cc2)nc2cccnc21`, `Cc1nccc(-c2cccc(NC(=O)c3ccccc3Cl)c2)n1` is higher in “hERG current change (%, negative = inhibition) at 10uM” value: -0.414% for the first, 6.06% for the second.

First: COc1ccccc1C(=O)NCC(=O)N1CC=C(c2ccccc2)CC1
Second: COc1ccccc1NC(=O)C(=O)NCCC1CCCCN1S(=O)(=O)c1ccccc1 (centres unmarked)
The “hERG current change (%, negative = inhibition) at 10uM” value of the first is lower: 6.76% for the first, 19.7% for the second.

Compared with `O=C(NCCCN1CCOCC1)c1cc(-c2ccc(O)cc2)on1`, `Cn1nc(-c2ccc(C(=O)NC3CCCCC3)cc2)c2ccccc2c1=O` is lower in “hERG current change (%, negative = inhibition) at 10uM” value: -4.4% for the first, -52.4% for the second.

Going from `CN1CCCN(C(=O)/C=C/c2ccc(Cl)cc2Cl)CC1.Cl` to `O=C(COc1ccc(S(=O)(=O)N2CCCCC2)cc1Cl)N1CCCC1`, the “hERG current change (%, negative = inhibition) at 10uM” value rises from -67% to -2.1%.

Compared with `CC(C)Sc1nnc(-c2c[nH]c3ccccc23)n1C`, `Cc1cc(C)n(/N=C/c2ccccc2O)c(=O)c1` is higher in “hERG current change (%, negative = inhibition) at 10uM” value: 1.3% for the first, 6.75% for the second.

First: CCCNC(=O)OC[C@H]1O[C@H](CCO/N=C(\C)CCN2CCc3nc(-c4ccccc4)c(-c4ccccc4)cc3C2)C=C[C@@H]1Oc1ccc(OC)cc1
Second: COc1ccc(N(CC(=O)N2CCc3ccccc32)S(=O)(=O)c2c(C)n[nH]c2C)cc1
The “hERG current change (%, negative = inhibition) at 10uM” value of the first is higher: -1.61% for the first, -18.6% for the second.

Going from `CC1CCc2sc(C(=O)OCC(=O)NC(C)C)cc2C1` (centres unmarked) to `COc1ccc(NC(=O)COC(=O)c2cc(SC)ccc2Cl)c(OC)c1`, the “hERG current change (%, negative = inhibition) at 10uM” value rises from 2.94% to 19%.

Going from `Cc1cccc(NC(=S)N(CCN(C)C)C(C)c2ccco2)c1` (centres unmarked) to `CN(c1ccccc1)S(=O)(=O)c1cccc(NC(=O)Cc2ccc(Cl)cc2)c1`, the “hERG current change (%, negative = inhibition) at 10uM” value rises from -32.6% to 9.43%.

Going from `COc1cc(/C=C/C(=O)OC(C)C(=O)Nc2c(C)n(C)n(-c3ccccc3)c2=O)ccc1OCC#N` (centres unmarked) to `COc1ccccc1CNC(=O)C(NS(=O)(=O)c1ccc2c(c1)OCCO2)C(C)C` (centres unmarked), the “hERG current change (%, negative = inhibition) at 10uM” value falls from 20.1% to 2.23%.

Going from `O=C1NC2(CCN(Cc3ccccc3)CC2)Oc2ccccc21` to `CC(Cc1ccccc1)N1Cc2ccccc2C1` (centres unmarked), the “hERG current change (%, negative = inhibition) at 10uM” value falls from 4.57% to -15.8%.

First: Cl.O=C(O)c1cccc(Nc2ncnc3c2cnn3-c2ccccc2)c1
Second: O=C(N/N=C\c1ccc(O)c([N+](=O)[O-])c1)c1ccccc1-n1cccc1
The “hERG current change (%, negative = inhibition) at 10uM” value of the first is higher: 15.1% for the first, 8.44% for the second.

First: CC(C)OC(=O)C1=C2SCC(=O)N2C(N)=C(C#N)C1
Second: CCOC(=O)C1=C(C)N(c2ccccc2)C(=O)C1CC(=O)O (centres unmarked)
The “hERG current change (%, negative = inhibition) at 10uM” value of the first is higher: 12.5% for the first, 7.68% for the second.

Compared with `Cc1ccc(-n2nc(C)c3c(-c4cccs4)c(C#N)c(N)nc32)cc1`, `Cn1c(-c2ccsc2)c(-c2cccs2)c2cc(-c3ccc4[nH]ccc4c3)ccc21` is lower in “hERG current change (%, negative = inhibition) at 10uM” value: 7.34% for the first, 4.63% for the second.

Going from `S=c1[nH]nc(COc2ccc(Cl)cc2)o1` to `Clc1ccc(-c2nnc3sc(-c4ccc(Br)o4)nn23)cc1`, the “hERG current change (%, negative = inhibition) at 10uM” value falls from 31.8% to 12.4%.

Compared with `Cl.Fc1cccc(C2NCc3ccccc3-n3cccc32)c1` (centres unmarked), `COc1ccc2cc(C(c3nnnn3C(C)(C)C)N3CCc4ccccc4C3)c(=O)[nH]c2c1` (centres unmarked) is lower in “hERG current change (%, negative = inhibition) at 10uM” value: -9.2% for the first, -24.1% for the second.

Going from `CC(=Nc1ccccc1N)c1c(O)n(C)c(=O)n(C)c1=O` to `CC(C)Cn1c(CN2CCN(C(=O)c3ccco3)CC2)nc2c1c(=O)n(C)c(=O)n2C`, the “hERG current change (%, negative = inhibition) at 10uM” value falls from 21% to -12.2%.

Compared with `CCOP(=O)(OCC)/C(C#N)=C/c1ccc(Br)cc1`, `O=C(/C=C/c1ccccc1)N1CCC[C@H]1CO` is higher in “hERG current change (%, negative = inhibition) at 10uM” value: -13.5% for the first, 6.12% for the second.

Compared with `CCN(CC)c1nc2nonc2nc1N(CC)CC`, `Cc1ccc(C(=O)c2coc3cc([N+](=O)[O-])c(O)c([N+](=O)[O-])c23)cc1` is higher in “hERG current change (%, negative = inhibition) at 10uM” value: -2.82% for the first, 18.4% for the second.
